# Laboratory results reported in the supplement of paper PMC8728848.
# The other results are listed elsewhere or left out.
# B1: MMR (Homo sapiens), P22897 (protein)
# chain: MRLPLLLVFASVIPGAVLLLDTRQFLIYNEDHKRCVDAVSPSAVQTAACNQDAESQKFRWVSESQIMSVAFKLCLGVPSKTDWVAITLYACDSKSEFQKWECKNDTLLGIKGEDLFFNYGNRQEKNIMLYKGSGLWSRWKIYGTTDNLCSRGYEAMYTLLGNANGATCAFPFKFENKWYADCTSAGRSDGWLWCGTTTDYDTDKLFGYCPLKFEGSESLWNKDPLTSVSYQINSKSALTWHQARKSCQQQNAELLSITEIHEQTYLTGLTSSLTSGLWIGLNSLSFNSGWQWSDRSPFRYLNWLPGSPSAEPGKSCVSLNPGKNAKWENLECVQKLGYICKKGNTTLNSFVIPSESDVPTHCPSQWWPYAGHCYKIHRDEKKIQRDALTTCRKEGGDLTSIHTIEELDFIISQLGYEPNDELWIGLNDIKIQMYFEWSDGTPVTFTKWLRGEPSHENNRQEDCVVMKGKDGYWADRGCEWPLGYICKMKSRSQGPEIVEVEKGCRKGWKKHHFYCYMIGHTLSTFAEANQTCNNENAYLTTIEDRYEQAFLTSFVGLRPEKYFWTGLSDIQTKGTFQWTIEEEVRFTHWNSDMPGRKPGCVAMRTGIAGGLWDVLKCDEKAKFVCKHWAEGVTHPPKPTTTPEPKCPEDWGASSRTSLCFKLYAKGKHEKKTWFESRDFCRALGGDLASINNKEEQQTIWRLITASGSYHKLFWLGLTYGSPSEGFTWSDGSPVSYENWAYGEPNNYQNVEYCGELKGDPTMSWNDINCEHLNNWICQIQKGQTPKPEPTPAPQDNPPVTEDGWVIYKDYQYYFSKEKETMDNARAFCKRNFGDLVSIQSESEKKFLWKYVNRNDAQSAYFIGLLISLDKKFAWMDGSKVDYVSWATGEPNFANEDENCVTMYSNSGFWNDINCGYPNAFICQRHNSSINATTVMPTMPSVPSGCKEGWNFYSNKCFKIFGFMEEERKNWQEARKACIGFGGNLVSIQNEKEQAFLTYHMKDSTFSAWTGLNDVNSEHTFLWTDGRGVHYTNWGKGYPGGRRSSLSYEDADCVVIIGGASNEAGKWMDDTCDSKRGYICQTRSDPSLTNPPATIQTDGFVKYGKSSYSLMRQKFQWHEAETYCKLHNSLIASILDPYSNAFAWLQMETSNERVWIALNSNLTDNQYTWTDKWRVRYTNWAADEPKLKSACVYLDLDGYWKTAHCNESFYFLCKRSDEIPATEPPQLPGRCPESDHTAWIPFHGHCYYIESSYTRNWGQASLECLRMGSSLVSIESAAESSFLSYRVEPLKSKTNFWIGLFRNVEGTWLWINNSPVSFVNWNTGDPSGERNDCVALHASSGFWSNIHCSSYKGYICKRPKIIDAKPTHELLTTKADTRKMDPSKPSSNVAGVVIIVILLILTGAGLAAYFFYKKRRVHLPQEGAFENTLYFNSQSSPGTSDMKDLVGNIEQNEHSVI
# Experiments:
# Assay in all cases: glycan array binding signal (z-score within array); higher = stronger binding
# Conditions in all cases: glycan notation: IUPAC condensed, linker removed
# Fuc(a1-2)Gal = target: Fuc(a1-2)Gal
# Procedure, shortened: (§1)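 Arrays were curated from the Consortium for Functional Glycomics database, 3228 in total, and kept only where the protein sequence was available. Binding is expressed as a within-array Z-score. This score was averaged across arrays of the same protein sequence at different concentrations or buffers and across linkers, and negative values can be read as non-binding.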
# Fuc(a1-2)Gal(b1-3)GalNAc = target: Fuc(a1-2)Gal(b1-3)GalNAc
# Procedure, shortened: as §1
# [1] = target: Fuc(a1-2)Gal(b1-3)GalNAc(b1-3)Gal
# Procedure, shortened: as §1
# [2] = target: Fuc(a1-2)Gal(b1-3)GalNAc(b1-3)Gal(a1-4)Gal(b1-4)Glc
# Procedure, shortened: as §1
# [3] = target: Fuc(a1-2)Gal(b1-3)GalNAc(b1-4)[Neu5Ac(a2-3)]Gal(b1-4)Glc
# Procedure, shortened: as §1
# Fuc(a1-2)Gal(b1-3)GlcNAc = target: Fuc(a1-2)Gal(b1-3)GlcNAc
# Procedure, shortened: as §1
# [4] = target: Fuc(a1-2)Gal(b1-3)GlcNAc(b1-3)Gal(b1-4)Glc
# Procedure, shortened: as §1
# [5] = target: Fuc(a1-2)Gal(b1-3)[Fuc(a1-4)]GlcNAc
# Procedure, shortened: as §1
# Fuc(a1-2)Gal(b1-4)Glc = target: Fuc(a1-2)Gal(b1-4)Glc
# Procedure, shortened: as §1
# Fuc(a1-2)Gal(b1-4)GlcNAc = target: Fuc(a1-2)Gal(b1-4)GlcNAc
# Procedure, shortened: as §1
# [6] = target: Fuc(a1-2)Gal(b1-4)GlcNAc(b1-3)Gal(b1-4)GlcNAc
# Procedure, shortened: as §1
# [7] = target: Fuc(a1-2)Gal(b1-4)GlcNAc(b1-3)Gal(b1-4)GlcNAc(b1-3)Gal(b1-4)GlcNAc
# Procedure, shortened: as §1
# [8] = target: Fuc(a1-2)Gal(b1-4)[Fuc(a1-3)]GlcNAc
# Procedure, shortened: as §1
# [9] = target: Fuc(a1-2)Gal(b1-4)[Fuc(a1-3)]GlcNAc(b1-3)Gal(b1-4)[Fuc(a1-3)]GlcNAc
# Procedure, shortened: as §1
# [10] = target: Fuc(a1-2)Gal(b1-4)[Fuc(a1-3)]GlcNAc(b1-3)Gal(b1-4)[Fuc(a1-3)]GlcNAc(b1-3)Gal(b1-4)[Fuc(a1-3)]GlcNAc
# Procedure, shortened: as §1
# Fuc(a1-2)GlcNAc = target: Fuc(a1-2)GlcNAc
# Procedure, shortened: as §1
# Fuc(a1-2)[Gal(a1-3)]Gal = target: Fuc(a1-2)[Gal(a1-3)]Gal
# Procedure, shortened: as §1
# [11] = target: Fuc(a1-2)[Gal(a1-3)]Gal(b1-3)GlcNAc
# Procedure, shortened: as §1
# [12] = target: Fuc(a1-2)[Gal(a1-3)]Gal(b1-4)Glc
# Procedure, shortened: as §1
# [13] = target: Fuc(a1-2)[Gal(a1-3)]Gal(b1-4)GlcNAc
# Procedure, shortened: as §1
# [14] = target: Fuc(a1-2)[Gal(a1-3)]Gal(b1-4)[Fuc(a1-3)]GlcNAc
# Procedure, shortened: as §1
# [15] = target: Fuc(a1-2)[Gal(a1-4)]Gal(b1-4)GlcNAc
# Procedure, shortened: as §1
# [16] = target: Fuc(a1-2)[GalNAc(a1-3)]Gal
# Procedure, shortened: as §1
# [17] = target: Fuc(a1-2)[GalNAc(a1-3)]Gal(b1-3)GlcNAc
# Procedure, shortened: as §1
# [18] = target: Fuc(a1-2)[GalNAc(a1-3)]Gal(b1-4)Glc
# Procedure, shortened: as §1
# [19] = target: Fuc(a1-2)[GalNAc(a1-3)]Gal(b1-4)GlcNAc
# Procedure, shortened: as §1
# [20] = target: Fuc(a1-2)[GalNAc(a1-3)]Gal(b1-4)[Fuc(a1-3)]GlcNAc
# Procedure, shortened: as §1
# [21] = target: Fuc(a1-2)[GalNAc(a1-4)]Gal(b1-4)GlcNAc
# Procedure, shortened: as §1
# [22] = target: Fuc(a1-2)[GalNAc(b1-3)]Gal
# Procedure, shortened: as §1
# Fuc(a1-3)GlcNAc = target: Fuc(a1-3)GlcNAc
# Procedure, shortened: as §1
binder,measurement,setting,value
B1,glycan array binding signal (z-score),Fuc(a1-2)Gal,-0.385
same,glycan array binding signal (z-score),Fuc(a1-2)Gal(b1-3)GalNAc,-0.435
same,glycan array binding signal (z-score),[1],-0.291
same,glycan array binding signal (z-score),[2],-0.361
same,glycan array binding signal (z-score),[3],-0.249
same,glycan array binding signal (z-score),Fuc(a1-2)Gal(b1-3)GlcNAc,-0.441
same,glycan array binding signal (z-score),[4],-0.437
same,glycan array binding signal (z-score),[5],-0.451
same,glycan array binding signal (z-score),Fuc(a1-2)Gal(b1-4)Glc,-0.429
same,glycan array binding signal (z-score),Fuc(a1-2)Gal(b1-4)GlcNAc,-0.424
same,glycan array binding signal (z-score),[6],-0.421
same,glycan array binding signal (z-score),[7],-0.377
same,glycan array binding signal (z-score),[8],-0.401
same,glycan array binding signal (z-score),[9],-0.234
same,glycan array binding signal (z-score),[10],0.125
same,glycan array binding signal (z-score),Fuc(a1-2)GlcNAc,-0.407
same,glycan array binding signal (z-score),Fuc(a1-2)[Gal(a1-3)]Gal,-0.411
same,glycan array binding signal (z-score),[11],-0.455
same,glycan array binding signal (z-score),[12],-0.351
same,glycan array binding signal (z-score),[13],-0.445
same,glycan array binding signal (z-score),[14],-0.414
same,glycan array binding signal (z-score),[15],-0.446
same,glycan array binding signal (z-score),[16],-0.457
same,glycan array binding signal (z-score),[17],-0.395
same,glycan array binding signal (z-score),[18],-0.394
same,glycan array binding signal (z-score),[19],-0.437
same,glycan array binding signal (z-score),[20],-0.377
same,glycan array binding signal (z-score),[21],-0.452
same,glycan array binding signal (z-score),[22],-0.381
same,glycan array binding signal (z-score),Fuc(a1-3)GlcNAc,-0.421
